The record followed here is article PMC3605307 (PLoS Pathogens, 2013).

This experiment concerns the target T1, TRAIL (TNF-related apoptosis inducing ligand) ectodomain (UniProt P50591 39-281).
T1 construct: also called TNFSF10; Apo2L
As to the kind of experiment: SPR. The note with it: one partner purified.

B1: human TRAIL-R2-Fc V167A (Fc fusion)
chain: not shown
notes: source: Sf9 insect cells, culture supernatant; not shown: Fc (human IgG1), C-terminal, kept
A word on the Kd: it is the equilibrium constant for the complex coming apart. High values mean weaker binding, low ones tighter binding. For orientation: koff means the first-order rate constant of dissociation. Low readings indicate slow dissociation, high ones fast dissociation. One may read the kon as the second-order rate constant of association. Lower therefore signals slower complex formation. For the molecule B1, binding was characterised by a dissociation constant (Kd) of 4.35 nM, the koff is 9.57e-06 s⁻¹ and the kon stood at 2200 M⁻¹ s⁻¹.
